In the BET-seq Pho4 binding data (Le et al. 2018):
The other results are listed elsewhere or left out. Values were computed here from the reads of four pooled replicates and scatter widely.

Each sequence was assayed against T1, Pho4 (S. cerevisiae) (UniProt P07270) (assay: relative binding free energy (BET-seq); higher = weaker binding). Conditions: reference: library average.
T1 sequence: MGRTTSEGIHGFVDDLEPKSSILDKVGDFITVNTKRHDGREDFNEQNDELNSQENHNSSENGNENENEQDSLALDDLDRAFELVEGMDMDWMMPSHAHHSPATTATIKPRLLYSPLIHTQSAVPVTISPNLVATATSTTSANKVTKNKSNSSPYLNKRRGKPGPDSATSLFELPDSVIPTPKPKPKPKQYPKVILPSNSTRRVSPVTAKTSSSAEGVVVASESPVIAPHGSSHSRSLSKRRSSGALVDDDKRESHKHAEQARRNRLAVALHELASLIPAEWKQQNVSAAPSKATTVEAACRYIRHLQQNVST

Q: How did the “relative binding free energy” value turn out when CAGGCCACGTGTGGTT was run?
A: Its value is -0.02 kcal/mol.

Q: Which “relative binding free energy” value does the source give for TCTGTCACGTGTGATT here?
A: Its value is 0.17 kcal/mol.

Q: For GGGCGCACGTGTGAAT, which “relative binding free energy” value is on record?
A: The value was -0.01 kcal/mol.

Q: With ATTTACACGTGTGCAT as the sequence, how does the “relative binding free energy” value read?
A: The value was 0.04 kcal/mol.

Q: Which “relative binding free energy” value does the source give for CTTCGCACGTGGTTTA here?
A: The value was -0.07 kcal/mol.

Q: With GTCGTCACGTGGTAGC as the sequence, how does the “relative binding free energy” value read?
A: Its value is 0.17 kcal/mol.

Q: TAAGACACGTGGGGTT was tested. Which “relative binding free energy” value did it give?
A: Its value is -0.08 kcal/mol.

Q: GGTGTCACGTGATCAT was tested. Which “relative binding free energy” value did it give?
A: Its value is 0.2 kcal/mol.

Q: With ACAGGCACGTGGGGGT as the sequence, how does the “relative binding free energy” value read?
A: The value was -0.3 kcal/mol.

Q: TTGGTCACGTGCTGGC was tested. Which “relative binding free energy” value did it give?
A: Its value is 0.06 kcal/mol.

Q: Which “relative binding free energy” value does the source give for TAGTCCACGTGGGTGT here?
A: The value was -0.17 kcal/mol.

Q: Which “relative binding free energy” value does the source give for GTCTTCACGTGGGTGA here?
A: The value was 0.1 kcal/mol.

Q: With TCTAGCACGTGAATGT as the sequence, how does the “relative binding free energy” value read?
A: The value was 0.22 kcal/mol.

Q: Which “relative binding free energy” value does the source give for GCGGCCACGTGGCGGG here?
A: Its value is -0.15 kcal/mol.

Q: TTTGTCACGTGTTCTC was tested. Which “relative binding free energy” value did it give?
A: Its value is 0 kcal/mol.

Q: How did the “relative binding free energy” value turn out when ATTTCCACGTGGGGTA was run?
A: Its value is -0.16 kcal/mol.

Q: For AATTACACGTGATTGA, which “relative binding free energy” value is on record?
A: Its value is 0.28 kcal/mol.

Q: With GTCGGCACGTGAGGGT as the sequence, how does the “relative binding free energy” value read?
A: The value was 0.16 kcal/mol.

Q: Which “relative binding free energy” value does the source give for ACGTTCACGTGAAGGT here?
A: The value was 0.31 kcal/mol.

Q: For CCGGTCACGTGAGGGG, which “relative binding free energy” value is on record?
A: Its value is 0.2 kcal/mol.

Q: Which “relative binding free energy” value does the source give for CGGGCCACGTGTGCGG here?
A: The value was -0.11 kcal/mol.

Q: For CGTTTCACGTGGAGGC, which “relative binding free energy” value is on record?
A: The value was 0.27 kcal/mol.

Q: How did the “relative binding free energy” value turn out when TTGAGCACGTGCCGGG was run?
A: The value was -0.11 kcal/mol.

Q: CGGAGCACGTGAGTTT was tested. Which “relative binding free energy” value did it give?
A: The value was 0.15 kcal/mol.

Q: Which “relative binding free energy” value does the source give for TGCGTCACGTGGATTG here?
A: Its value is 0.1 kcal/mol.

Q: How did the “relative binding free energy” value turn out when GAGTGCACGTGATTTT was run?
A: The value was 0.25 kcal/mol.

Q: For CTTAGCACGTGAGAGG, which “relative binding free energy” value is on record?
A: The value was 0.11 kcal/mol.

Q: Which “relative binding free energy” value does the source give for GGGAGCACGTGGCAAG here?
A: Its value is -0.22 kcal/mol.

Q: TTTTTCACGTGGATGG was tested. Which “relative binding free energy” value did it give?
A: Its value is 0.33 kcal/mol.

Q: CGTTTCACGTGGGGCG was tested. Which “relative binding free energy” value did it give?
A: The value was 0.28 kcal/mol.

Q: With ATGATCACGTGACGGG as the sequence, how does the “relative binding free energy” value read?
A: The value was 0.22 kcal/mol.

Q: For GCATTCACGTGTGTTT, which “relative binding free energy” value is on record?
A: Its value is 0.34 kcal/mol.

Q: ATGTGCACGTGCATAG was tested. Which “relative binding free energy” value did it give?
A: The value was -0.06 kcal/mol.

Q: How did the “relative binding free energy” value turn out when TATGTCACGTGGGGGC was run?
A: Its value is -0.02 kcal/mol.

Q: How did the “relative binding free energy” value turn out when TTATGCACGTGTGCGT was run?
A: Its value is 0.05 kcal/mol.

Q: With AGTTTCACGTGTACAG as the sequence, how does the “relative binding free energy” value read?
A: Its value is 0.23 kcal/mol.

Q: ATACTCACGTGGTGAT was tested. Which “relative binding free energy” value did it give?
A: The value was 0.18 kcal/mol.

Q: Which “relative binding free energy” value does the source give for GGTCGCACGTGGTTGT here?
A: The value was -0.13 kcal/mol.

Q: For TGATTCACGTGCGTAT, which “relative binding free energy” value is on record?
A: Its value is 0.25 kcal/mol.

Q: With CTTGGCACGTGGAGAG as the sequence, how does the “relative binding free energy” value read?
A: The value was -0.03 kcal/mol.

Q: TTCTACACGTGGTTAG was tested. Which “relative binding free energy” value did it give?
A: The value was 0.09 kcal/mol.

Q: AAAGTCACGTGGCTTT was tested. Which “relative binding free energy” value did it give?
A: The value was 0.07 kcal/mol.

Q: With AAGTGCACGTGAATGG as the sequence, how does the “relative binding free energy” value read?
A: The value was 0.2 kcal/mol.

Q: How did the “relative binding free energy” value turn out when CTTGTCACGTGTTCAG was run?
A: The value was 0.13 kcal/mol.

Q: How did the “relative binding free energy” value turn out when AGACTCACGTGGGGGA was run?
A: Its value is 0.14 kcal/mol.

Q: For TATTACACGTGATAGA, which “relative binding free energy” value is on record?
A: The value was 0.21 kcal/mol.

Q: GGATGCACGTGTTGTA was tested. Which “relative binding free energy” value did it give?
A: Its value is 0.02 kcal/mol.

Q: Which “relative binding free energy” value does the source give for ACTGTCACGTGGGTAT here?
A: Its value is -0.05 kcal/mol.

Q: How did the “relative binding free energy” value turn out when TGGTGCACGTGTTGAC was run?
A: Its value is -0.07 kcal/mol.

Q: For ATATTCACGTGTGTGC, which “relative binding free energy” value is on record?
A: Its value is 0.2 kcal/mol.

Q: Which “relative binding free energy” value does the source give for ATGGGCACGTGATTAA here?
A: Its value is 0 kcal/mol.

Q: AGGTGCACGTGGCCAG was tested. Which “relative binding free energy” value did it give?
A: Its value is -0.09 kcal/mol.

Q: With TCTTACACGTGTATAG as the sequence, how does the “relative binding free energy” value read?
A: Its value is 0.21 kcal/mol.

Q: How did the “relative binding free energy” value turn out when ATCGTCACGTGAGTGC was run?
A: The value was 0.28 kcal/mol.

Q: Which “relative binding free energy” value does the source give for AGGTTCACGTGGAGCA here?
A: Its value is 0.42 kcal/mol.

Q: TTAAACACGTGAGTAA was tested. Which “relative binding free energy” value did it give?
A: Its value is 0.28 kcal/mol.

Q: With GGTGACACGTGATGGC as the sequence, how does the “relative binding free energy” value read?
A: Its value is 0.26 kcal/mol.

Q: For CATTTCACGTGATTGT, which “relative binding free energy” value is on record?
A: Its value is 0.2 kcal/mol.

Q: Which “relative binding free energy” value does the source give for AGGTTCACGTGCGTGT here?
A: Its value is 0.21 kcal/mol.

Q: How did the “relative binding free energy” value turn out when ATCGTCACGTGTTTTG was run?
A: The value was 0.16 kcal/mol.

Q: Which “relative binding free energy” value does the source give for TGTTGCACGTGGTCTT here?
A: The value was -0.19 kcal/mol.

Q: Which “relative binding free energy” value does the source give for ATAATCACGTGTGTCT here?
A: The value was 0.2 kcal/mol.

Q: How did the “relative binding free energy” value turn out when CGGGACACGTGAAGTG was run?
A: Its value is 0.24 kcal/mol.
